From PubChem BioAssay AID624417 (National Center for Advancing Translational Sciences (NCATS), 2012)
Hit rate of the full screen: of about 410,000 compounds, about 6,400 (1.6%) were called active. The inconclusive results got no clear call from the source; some entries with a clear call stand among them for comparison. The call rests on the fitted dose curve; in most records, active means well fitted inhibition curve with a large enough effect; inconclusive means small, poorly fitted or top-dose-only effect; inactive means no such curve, though single readings can be large or run the other way. No potency is given beside an inconclusive call; the fits are too rough.
Further: nearly all actives have a fitted effect of over 55% in size.
Potency means the concentration at half of the fitted maximal effect; tags describe the fitted curve by direction and shape.

What follows are molecules tested against Glucagon-like peptide 1 receptor (Homo sapiens) (UniProt P43220) (assay: qHTS of GLP-1 Receptor Inverse Agonists (Inhibition Mode)). Details: HEK293 GLP-1R CRE-luciferase, luminescence, 24 h, GLP-1R form is constitutively active; series mostly up to 38.3 µM.
Sequence of UniProt P43220 (P43220 whole entry, looked up): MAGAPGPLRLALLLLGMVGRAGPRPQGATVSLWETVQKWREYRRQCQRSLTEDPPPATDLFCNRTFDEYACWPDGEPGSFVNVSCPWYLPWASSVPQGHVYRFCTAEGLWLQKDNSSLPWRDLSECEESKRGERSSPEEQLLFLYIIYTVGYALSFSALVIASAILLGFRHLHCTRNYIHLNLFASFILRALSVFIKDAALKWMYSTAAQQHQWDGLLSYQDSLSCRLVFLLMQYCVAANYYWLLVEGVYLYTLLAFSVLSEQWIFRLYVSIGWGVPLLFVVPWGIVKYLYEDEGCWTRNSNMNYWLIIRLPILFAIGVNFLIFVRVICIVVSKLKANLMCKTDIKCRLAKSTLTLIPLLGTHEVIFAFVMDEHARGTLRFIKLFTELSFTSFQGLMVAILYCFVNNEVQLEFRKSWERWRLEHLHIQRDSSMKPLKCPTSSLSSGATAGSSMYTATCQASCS
In short: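 Stable HEK293 clone (constitutively active GLP-1R + cAMP-response luciferase); 200 cells/uL plated, 12 h pre-culture, compound 24 hr, 37 deg C/5% CO2; detection reagent 12 min RT; luminescence.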
In the case of `CC1(C(=O)Nc2cccc(Br)c2)Cc2ccccc2C(=O)O1` (stereo not drawn), the Potency was inconclusive [inhibitor, partial curve].
In the case of `CCc1nc2ccc(C(=O)Nc3ccc(NC(C)=O)cc3)cn2c1N(C)CCC(C)C`, the Potency was inconclusive [inhibitor, partial curve, poor fit].
`COc1ccccc1CNC(=O)CSc1ccc(-c2cccs2)nn1` was tested, and the Potency was inconclusive [inhibitor, single point].
In the case of `O=C(CN1CCN(S(=O)(=O)c2cc(C(F)(F)F)ccc2Cl)CC1)N1CCc2ccccc2C1`, the Potency was inconclusive [inhibitor, partial curve, poor fit].
With `Cc1nonc1C1CCCN1C(=O)c1cc(COc2cccc(C(F)(F)F)c2)on1` (stereo not drawn) the Potency was inconclusive [inhibitor, partial curve, poor fit].
In the case of `CN(C(=O)COC(=O)CNC(=O)c1sc2ccccc2c1Cl)c1ccccc1`, the Potency was “inactive”.
With `O=C(Nc1ccccc1)C1=C[C@@H](C2CCCCC2)C[C@@H](OCCCCO)O1` the Potency was inconclusive [inhibitor, single point].
For `CCNC(=O)N1CCCC(C(=O)c2ccc(-c3ccccc3)cc2)C1` (stereo not drawn), the Potency was inconclusive [inhibitor, single point].
For `O=C(NCc1ccccc1)c1cc(C2CCCCN2S(=O)(=O)Cc2ccccc2)on1` (stereo not drawn), the Potency was inconclusive [inhibitor, single point].
With `Cc1ccc2nc(SCC(=O)N3CCN(c4ccccc4)CC3)[nH]c2c1` the Potency was inconclusive [inhibitor, partial curve, poor fit].
In the case of `CCCn1nc(C(=O)Nc2cccc(C(=O)OC)c2)c2ccccc2c1=O`, the Potency was inconclusive [inhibitor, single point].
`COC(=O)/C(=C\c1ccc(O)cc1)c1nc2ccccc2[nH]1` was tested, and the Potency was “inactive”.
For `O=C(NCCc1ccccc1)c1ccc2c(c1)N(Cc1c(F)cccc1Cl)C(=O)CS2`, the Potency was inconclusive [inhibitor, single point].
For `Nc1nc(Sc2ccc([N+](=O)[O-])cc2[N+](=O)[O-])n[nH]1`, the Potency was “inactive”.
In the case of `COc1cc2c(cc1OC)C(c1ccc(F)cc1)N(c1cccc(C#N)c1)C(=O)C2` (stereo not drawn), the Potency was “inactive”.
With `CC(C)N1CCC1(C)C(=O)Nc1nccc2cccnc12` (stereo not drawn) the Potency was “inactive”.
`Cc1ccc2nc(N(CCCN(C)C)C(=O)c3ccc(S(=O)(=O)N4CCc5ccccc5C4)cc3)sc2c1` was tested, and the Potency was inconclusive [inhibitor, single point].
In the case of `Cc1nc(/C(N)=N/OC(=O)c2ccccc2Cl)c(C(F)(F)F)o1`, the Potency was inconclusive [inhibitor, single point].
In the case of `O=C(NC1CCCCC1)C(c1cccs1)N(Cc1cccs1)C(=O)c1cccs1` (stereo not drawn), the Potency was inconclusive [inhibitor, partial curve, poor fit].
`S=C(NN=Cc1ccc2c(c1)OCO2)NN=Cc1ccc2c(c1)OCO2` was tested, and the Potency was inconclusive [inhibitor, single point].
For `Cc1ccc(-n2ccc(=O)c(-c3ccnc(SCc4cccc(Cl)c4)n3)n2)cc1`, the Potency was inconclusive [inhibitor, partial curve, poor fit].
For `CCc1nc2ccc(C(=O)NCc3ccc4c(c3)OCO4)cn2c1N(C)CCC(C)C`, the Potency was inconclusive [inhibitor, single point].
With `COc1ccc(S(=O)(=O)NCC2CCC(C(=O)N3CCC4(CC3)OCCO4)CC2)cc1` (stereo not drawn) the Potency was “inactive”.
In the case of `COc1ccccc1CN1C(=S)SC(C)(C)C1NO` (stereo not drawn), the Potency was inconclusive [inhibitor, partial curve, poor fit].
`Cc1ccc(S(=O)(=O)N2[C@@H](c3cccc(Cl)c3)C(C(=O)O)=CC[C@H]2c2ccc(Cl)cc2)cc1` was tested, and the Potency was inconclusive [inhibitor, partial curve, poor fit].
For `COc1ccc(C(C)(O)c2nc(-c3ccccc3)cs2)cc1` (stereo not drawn), the Potency was inconclusive [inhibitor, partial curve, poor fit].
For `CC1=C(C(=O)NC2CC(C)(C)Cc3c2cnn3-c2cccc(F)c2)OCCO1` (stereo not drawn), the Potency was inconclusive [inhibitor, single point].
For `Cc1cc(NC(=O)CN(C)CC(=O)Nc2ccc(Cl)c(C(F)(F)F)c2)no1`, the Potency was inconclusive [inhibitor, single point].
`O=C(C1CCN(S(=O)(=O)c2cccc3nsnc23)CC1)N1CCc2ccccc21` was tested, and the Potency was inconclusive [inhibitor, single point].
In the case of `COc1ccc(-c2cc(C(=O)N/N=C(\C)c3cccnc3)c3ccccc3n2)cc1`, the Potency was inconclusive [inhibitor, single point].
For `Cc1csc(C(C)N(C)C(=O)c2ccc(OC3CCN(Cc4ccccn4)CC3)cc2)n1` (stereo not drawn), the Potency was inconclusive [inhibitor, full curve].
With `COc1ccc(COc2cc(-c3cccc(OC)c3)nc3ccc(NC(=O)c4ccc(Cl)cc4)cc23)cc1` the Potency was inconclusive [inhibitor, full curve].
In the case of `Cc1nn(Cc2ccccc2)c(C)c1C(=O)N1CCN(S(=O)(=O)/C=C/c2ccccc2)CC1`, the Potency was inconclusive [inhibitor, single point].
In the case of `Cc1cc(C)c2[nH]c(=O)c(C(c3nnnn3C(C)(C)C)N3CCN(C(=O)c4ccco4)CC3)cc2c1` (stereo not drawn), the Potency was “inactive”.
In the case of `c1ccc(-c2nc(NCCCN3CCOCC3)c3ccccc3n2)cc1`, the Potency was inconclusive [inhibitor, single point].
`COc1ccccc1CN1CCCC(CN(CCN(C)C)C(=O)c2ccc(C)cc2)C1` (stereo not drawn) was tested, and the Potency was inconclusive [inhibitor, partial curve].
For `COc1ccc(OC)c(NC(=O)CN(C)CCOc2ccc(Br)cc2)c1`, the Potency was inconclusive [inhibitor, single point].
With `Cc1cc(C)c(C(=O)/C=C/c2cccs2)c(=O)[nH]1` the Potency was inconclusive [inhibitor, partial curve].
In the case of `Cc1ccccc1-n1nnnc1SCC(=O)Nc1ccc(N2CCN(C)CC2)cc1`, the Potency was active: 1 µM.
For `CCN(CC)C(=O)c1cccc(-c2csc(C(O)c3ccc(F)cc3)n2)c1` (stereo not drawn), the Potency was inconclusive [inhibitor, single point].
In the case of `CCCc1nc2c(=O)n(C)c(=O)nc-2n(C)n1`, the Potency was inconclusive [inhibitor, full curve, poor fit].
With `CC(OC(=O)Cc1ccsc1)C(=O)Nc1ccc(Cl)cn1` (stereo not drawn) the Potency was “inactive”.
For `O=C(c1ccco1)N1CCN(C(=O)c2ccc(COc3ccc4c(c3)CCC4)o2)CC1`, the Potency was inconclusive [inhibitor, single point].
With `COc1cc2ccccc2cc1C(=O)NC1CCCCC1` the Potency was inconclusive [inhibitor, single point].
With `COCCCNC(=O)C[C@@H]1C[C@@]2(C(=O)OC)CCCCC=C2N(Cc2ccc(Cl)cc2Cl)C1=O` the Potency was inconclusive [inhibitor, single point].
With `Clc1ccc(/C=N/Nc2ncnc3ccccc23)cc1Cl` the Potency was inconclusive [inhibitor, full curve, poor fit].
With `O=C(Nc1ccc(Br)c(C(F)(F)F)c1)c1ccccc1` the Potency was inconclusive [inhibitor, full curve].
With `O=C(C1CCN(c2ncnc3c2nc2n3CCCCC2)CC1)N1CCN(c2cccc(Cl)c2)CC1` the Potency was active: 8.91 µM.
For `COc1ccc(C(NC(=O)C(C)C)c2ccc3cccnc3c2O)cc1` (stereo not drawn), the Potency was inconclusive [inhibitor, full curve, poor fit].
For `Cc1ccc(Cl)cc1N1CCN(C(=O)C2(S(=O)(=O)c3ccc(Cl)cc3)CC2)CC1`, the Potency was inconclusive [inhibitor, partial curve, poor fit].
For `COc1cc2c(cc1OC)C(COc1ccccc1OC)N(C(=O)COc1ccc(Cl)cc1)CC2` (stereo not drawn), the Potency was inconclusive [inhibitor, single point].
For `COC(=O)c1cc(-c2cccs2)nc2ccccc12`, the Potency was inconclusive [inhibitor, single point].
For `Cc1cc(F)ccc1NS(=O)(=O)c1ccc(-n2cccn2)cc1`, the Potency was inconclusive [inhibitor, partial curve, poor fit].
`Cc1ccc(CNS(=O)(=O)c2ccc3[nH]c4c(c3c2)CCCC4)cc1` was tested, and the Potency was inconclusive [inhibitor, single point].
For `CCCCCNC(=O)c1nc(-c2c(F)cccc2F)oc1-c1ccccc1`, the Potency was inconclusive [inhibitor, single point].
For `C=CCc1cc(Cl)ccc1OC(=O)Nc1cccc(Cl)c1`, the Potency was inconclusive [inhibitor, single point].
With `CS(=O)(=O)N(CC(=O)Nc1ccccc1-c1ccccc1)c1ccc(F)cc1` the Potency was inconclusive [inhibitor, single point].
`Nc1nc(N)c(Br)c(Nc2ccc(Cl)c(Cl)c2)n1` was tested, and the Potency was inconclusive [inhibitor, full curve].
In the case of `O=C1CSc2ccccc2N1`, the Potency was “inactive”.
For `O=C(Nc1ccc(F)c(Cl)c1)Nc1ccc(Cl)cn1`, the Potency was “inactive”.
`COc1ccc(C(=O)N2CCC(C(=O)Nc3ccc4c(c3)OCCO4)CC2)cc1` was tested, and the Potency was inconclusive [inhibitor, partial curve, poor fit].
With `CN1CCN(c2ccccc2NC(=O)COc2ccc(Cl)cc2)CC1` the Potency was inconclusive [inhibitor, single point].
For `Cc1ccc(Cn2c(CNS(=O)(=O)c3ccc(F)c(Cl)c3)nc3cccnc32)cc1`, the Potency was inconclusive [inhibitor, partial curve].
